Experimental findings from PubChem BioAssay (NCI) are described below.

The experiment has as its system NCI-H322M lung. The experiment is described as follows: DTP human tumour cell line panel, 48 h.

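The compound was tested at five concentrations on cells cultured in 96-well plates, with a 48-hour exposure period. GI50 marks 50% less growth. The concentration for full growth arrest is given as TGI.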

For orientation: GI50 means the concentration that inhibits growth by half. Broadly, the TGI is the concentration giving total growth inhibition. For the compound `CC(=O)Nc1ccc(-c2cn(-c3cccc(C(=O)Nc4ccc(F)c(C(F)(F)F)c4)c3)nn2)cn1`, the GI50 was 17.3 µM and the TGI worked out at 34.3 µM.
Regarding `CC[C@@]1(O)C(=O)OCc2c1cc1n(c2=O)Cc2c-1nc1cc(F)c(C)c3c1c2[C@@H](N)CC3`, the GI50 is under 0.01 µM and the TGI is 1.35 µM.
The like results for `COc1cc2oc(-c3cccc(C(=O)Nc4cccc([N+](=O)[O-])c4)c3)cc(=O)c2c(OC)c1OC` were, in that order, 6.46 µM and over 100 µM.
The like results for `N#Cc1c(-c2ccc(F)cc2)nc(SCc2ccccc2)nc1N1CCNCC1` were, in that order, 14.3 µM and 27.9 µM.
The like results for `C=CC(=O)Nc1ccc(C(=O)/C=C/c2ccc(N(C)CCF)cc2)c(O)c1` were, in that order, 4.27 µM and 17.5 µM.
`O=C(CCl)Nc1ccc(C(=O)/C=C/c2cc3ccccc3nc2Cl)cc1`: the GI50 was 2.7 µM and the total growth inhibition concentration (TGI) came to 8.14 µM.
Regarding `COc1ccc(N(C)c2cc(C#N)nc3ccccc23)cc1N`, the concentration for 50% growth inhibition (GI50) is under 0.01 µM and the total growth inhibition concentration (TGI) was over 100 µM.
